Assay results: PubChem BioAssay AID504339 (National Center for Advancing Translational Sciences (NCATS), 2011)
Among all 390,000 compounds or so, about 17,000 (4.4%) were called active. The inconclusive results got no clear call from the source; some entries with a clear call stand among them for comparison. Calls follow the shape of the dose curve; as a rule, active = well fitted inhibition curve with a large enough effect; inconclusive = small, poorly fitted or top-dose-only effect; inactive = no such curve, though single readings can be large or run the other way. Potencies of inconclusive entries are doubtful fits and often do not repeat.

molecular target: Lysine-specific demethylase 4A (Homo sapiens) (UniProt O75164); assay: qHTS Assay for Inhibitors of JMJD2A-Tudor Domain; conditions: AlphaScreen JMJD2A-Tudor / H3K4me3 peptide binding; activity change, negative = inhibition: at 114 µM (top of the series); also: nearly all actives have a fitted effect of over 50% in size
UniProt O75164, sequence (O75164 whole entry, looked up, the tested form may be a part): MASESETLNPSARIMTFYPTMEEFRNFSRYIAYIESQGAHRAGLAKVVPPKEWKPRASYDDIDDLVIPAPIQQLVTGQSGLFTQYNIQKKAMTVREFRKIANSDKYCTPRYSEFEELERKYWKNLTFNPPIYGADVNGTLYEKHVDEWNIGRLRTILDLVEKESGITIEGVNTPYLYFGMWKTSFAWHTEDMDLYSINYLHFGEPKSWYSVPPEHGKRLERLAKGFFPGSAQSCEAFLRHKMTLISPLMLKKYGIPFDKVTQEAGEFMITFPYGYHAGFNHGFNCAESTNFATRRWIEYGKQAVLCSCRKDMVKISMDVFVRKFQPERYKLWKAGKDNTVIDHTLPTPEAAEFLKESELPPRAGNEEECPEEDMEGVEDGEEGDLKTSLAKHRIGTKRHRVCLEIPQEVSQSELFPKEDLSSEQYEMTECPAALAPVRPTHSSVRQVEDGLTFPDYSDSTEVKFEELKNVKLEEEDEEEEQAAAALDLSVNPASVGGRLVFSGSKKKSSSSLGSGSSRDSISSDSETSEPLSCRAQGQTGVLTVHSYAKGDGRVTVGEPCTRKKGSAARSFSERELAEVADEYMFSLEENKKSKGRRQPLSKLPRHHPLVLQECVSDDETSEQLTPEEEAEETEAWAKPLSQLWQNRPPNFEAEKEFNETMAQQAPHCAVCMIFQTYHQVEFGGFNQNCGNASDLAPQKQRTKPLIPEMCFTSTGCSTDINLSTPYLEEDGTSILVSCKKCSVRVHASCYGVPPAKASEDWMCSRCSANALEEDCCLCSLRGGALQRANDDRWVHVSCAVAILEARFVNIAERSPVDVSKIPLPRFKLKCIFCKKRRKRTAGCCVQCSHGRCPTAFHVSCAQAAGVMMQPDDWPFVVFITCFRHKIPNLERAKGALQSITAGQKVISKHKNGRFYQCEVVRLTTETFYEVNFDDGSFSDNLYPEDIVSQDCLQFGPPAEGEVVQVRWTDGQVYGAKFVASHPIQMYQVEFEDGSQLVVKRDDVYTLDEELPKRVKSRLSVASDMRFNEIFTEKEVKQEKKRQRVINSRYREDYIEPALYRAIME
% is scaled to controls: 0 for no effect and ±100 for the full control effect; potency is read from the fitted curve at half-maximal effect; tags tell the direction and shape of the fitted curve.

SMILES	Potency	activity change, negative = inhibition
Cc1[nH]n(-c2ccccc2)c(=O)c1N=Nc1cccc(S(=O)(=O)N2CCOCC2)c1	active: 56.2 µM	–
COc1ccccc1CNC(=O)c1cc(-c2ccccc2)nn1CC1CC(c2cccc([N+](=O)[O-])c2)=NO1 (stereo unspecified)	inconclusive: 70.8 µM [inhibitor, partial curve, poor fit]	–
COc1cc(CCC(=O)Nc2c(C(=O)N3CCN(c4ccccc4OC)CC3)oc3ccccc23)on1	inconclusive: 100 µM [inhibitor, single point]	–
Cc1cc(N2CCN(C(c3ccccc3)c3ccccc3)CC2)n2ncnc2n1	inconclusive: 12.6 µM [inhibitor, partial curve]	–
CN(CCc1ccccc1)C(=O)c1ccc(NC(=O)Cc2ccc([N+](=O)[O-])cc2)cc1	inconclusive: 31.6 µM [inhibitor, full curve]	–
O=C(NNC1=C(C(=O)C(F)(F)F)CCC1)c1ccccc1O	inconclusive: 79.4 µM [inhibitor, partial curve]	–
O=C(NCCc1ccccc1F)C1CCC(=O)N(Cc2ccc(Cl)cc2)C1 (stereo unspecified)	–	inactive: 0.694%
CCc1ccc(NC(=O)C2CCN(S(=O)(=O)c3ccc4[nH]c5c(c4c3)CCCCC5)CC2)cc1	inconclusive: 63.1 µM [inhibitor, partial curve, poor fit]	–
Cc1cccnc1Nc1nc(-c2ccc(O)cc2O)cs1	active: 14.1 µM	–
NS(=O)(=O)c1ccc(CCNCc2cc(Cl)ccc2OCc2ccccc2)cc1	–	inactive: -28.5%
Nc1c(C(=O)c2ccc(Cl)cc2)sc2nsc(SCCN3CCOCC3)c12	–	inactive: 7.24%
Cc1ccc2oc(C(=O)N3CCN(c4cccc(C)n4)CC3)c(C)c2c1	inconclusive: 15.8 µM [inhibitor, full curve]	–
Cc1ccc(-n2c(C)cc(/C=N/Nc3ccc([N+](=O)[O-])cn3)c2C)c(C)c1	inconclusive: 70.8 µM [inhibitor, partial curve, poor fit]	–
O=C(CCC(=O)c1cccs1)OCC(=O)c1ccccc1	–	inactive: 6.94%
COc1cc(NC(=O)Cc2ccccc2)c(C(=O)O)cc1OC	inconclusive: 56.2 µM [inhibitor, partial curve, poor fit]	–
Cc1ccc(N2CCN(C(=O)c3ccccc3NC(=O)c3ccccc3C(=O)O)CC2)cc1	–	inactive: -19.5%
O=C(NNC(=S)NC(=O)c1cccnc1)c1ccc(Cl)cc1	inconclusive: 89.1 µM [inhibitor, partial curve]	–
O=[N+]([O-])c1cc(-c2ccc(C(=S)N3CCOCC3)o2)ccc1Cl	active: 39.8 µM	–
O=C(NC(=S)Nc1ccccc1[N+](=O)[O-])c1ccccc1	inconclusive: 44.7 µM [inhibitor, partial curve]	–
COc1ccc(Br)cc1/C=N/N1CCN(Cc2ccccc2Cl)CC1	active: 39.8 µM	–
CCOc1cc(S(=O)(=O)n2ccnc2C(C)C)ccc1Cl	–	inactive: -25.6%
Cc1ccc(-n2c(O)c(C=Nc3ccccc3-c3n[nH]c(=S)[nH]c3=O)c3ccccc3c2=O)c(C)c1	active: 44.7 µM	–
CCOC(=O)c1c(S(=O)(=O)N2CCCC(C(=O)N3CCN(c4cccc(C)c4C)CC3)C2)c(C)n(C)c1C (stereo unspecified)	inconclusive: 79.4 µM [inhibitor, partial curve]	–
O=C1OCC(c2ccccc2)=C1c1ccccc1	–	inactive: -8.36%

SMILES	Potency	activity change, negative = inhibition
COc1cccc(CNCC(=O)N2C(C)CCCC2C)c1 (stereo unspecified)	active: 3.55 µM	–
Cc1ccc(N2CC(C(=O)Nc3ccc(N(C)C)cc3)CC2=O)cc1C (stereo unspecified)	active: 56.2 µM	–
CNc1ccc(Br)cc(C(=O)/C=C/c2ccc3c(c2)OCO3)c1=O	active: 39.8 µM	–
COc1ccc(-n2c(SCc3ccc([N+](=O)[O-])cc3)nnc2-c2ccccc2)cc1	inconclusive: 31.6 µM [inhibitor, single point]	–
COc1cc(NS(=O)(=O)c2ccc(N/C=C\C(=O)c3ccc(C)cc3)cc2)nc(OC)n1	inconclusive: 3.16 µM [inhibitor, single point]	–
CCOc1cc(NC(=S)NCCCOC)c(OCC)cc1NC(=O)c1ccco1	inconclusive: 31.6 µM [inhibitor, single point]	–
Cc1ccc(N2C(=O)[C@@H]3[C@H](C2=O)C2c4ccccc4C=CN2[C@@H]3C(=O)c2ccco2)cc1 (stereo partly specified)	inconclusive: 44.7 µM [inhibitor, partial curve]	–
O=C(N/N=C/c1ccc[nH]1)c1cc2ccccc2cc1O	inconclusive: 56.2 µM [inhibitor, partial curve]	–
COc1cc(OC)cc(C(=O)NC(=S)Nc2ccc(N3CCCC3)cc2)c1	inconclusive: 12.6 µM [inhibitor, partial curve]	–
O=C1Nc2ccccc2C1=Nc1ccc(-c2nnc3n2CCCCC3)cc1	inactive	–
CCOCc1nnc(NC(=O)c2c(-c3ccccc3)noc2C)s1	–	inactive: -28.4%
CC(=O)c1ccc(NS(=O)(=O)c2ccc(N/C=C/C(=O)c3ccc(F)cc3)cc2)cc1	inconclusive: 28.2 µM [inhibitor, partial curve]	–
CSCCC1NC2(C(=O)Nc3c2ccc(Cl)c3C)[C@@H]2C(=O)N(C3CCCC3)C(=O)[C@H]12 (stereo partly specified)	inconclusive: 56.2 µM [inhibitor, partial curve]	–
CC=C1COC(C(=O)NCCOCCO)(C(F)(F)F)C=C1C=C(C)C (stereo unspecified)	–	inactive: -11.7%
COc1ccc(Nc2nc(N)c(C(=O)c3ccc(F)cc3)s2)cc1	inconclusive: 25.1 µM [inhibitor, full curve]	–
O=C(NC1CC(=O)N(c2cccc(F)c2)C1)C1CC1 (stereo unspecified)	–	inactive: -8.77%
COC(=O)[C@@]1(Cc2ccccc2)[C@H]2C(=O)N(Cc3ccccc3)C(=O)[C@H]2[C@H]2CN=C(SCc3ccc(Cl)cc3)N21	inconclusive: 79.4 µM [inhibitor, partial curve]	–
Cc1ccc(NC(=O)CSc2n[nH]c(-c3ccco3)n2)cc1	–	inactive: 0.752%
COc1cccc(NS(=O)(=O)c2ccc3[nH]cc(C(=O)N4CCCCCC4)c(=O)c3c2)c1	inconclusive: 44.7 µM [inhibitor, partial curve]	–
Cc1ccc(S(=O)(=O)NNC2CC(=O)N(c3ccc(Br)cc3)C2=O)cc1 (stereo unspecified)	inconclusive: 39.8 µM [inhibitor, full curve, poor fit]	–
CCOC(=O)c1c(-c2ccc(C)cc2)csc1NC(=O)c1nc(SCC)ncc1Cl	–	inactive: -13.2%
O=[N+]([O-])c1ccc(/C=N/Nc2ccnc3cc(Cl)ccc23)o1	active: 39.8 µM	–
O=C(CCC(=O)NNc1nc2ccccc2c2nc(-c3ccccc3)nn12)NCCCN1CCCC1=O	–	inactive: -12.6%
COc1ccc(N2CCN(CCCNC(=O)C(=O)c3c[nH]c4ccccc34)CC2)cc1	active: 28.2 µM	–

SMILES	Potency	activity change, negative = inhibition
O=C(CSc1nc2cc(Cl)ccc2s1)NC(=O)NCc1ccco1	inconclusive: 44.7 µM [inhibitor, partial curve]	–
COc1cccc(C2c3[nH]c4ccccc4c3CCN2Cc2cnc(C)s2)c1OC (stereo unspecified)	inconclusive: 44.7 µM [inhibitor, partial curve]	–
CCOC(=O)c1sc(NC(=O)CN2CCN(c3ccc(OC)cc3)CC2)nc1C	active: 56.2 µM	–
Cc1cccc(N2CCN(C(=O)c3ccc(CS(=O)Cc4ccc(Cl)cc4)o3)CC2)c1C (stereo unspecified)	inconclusive: 56.2 µM [inhibitor, partial curve]	–
Fc1ccc(Nc2nnns2)cc1	inconclusive: 89.1 µM [inhibitor, single point]	–
Cc1n[nH]c(C)c1CCOc1ccc(C(C)C)cc1	inconclusive: 100 µM [inhibitor, partial curve, poor fit]	–
COc1cc(NC(=S)NC2CC(C)(C)NC(C)(C)C2)cc(OC)c1	–	inactive: 1.03%
COc1cc(OC)c(N(C)C(=O)Cn2ncc3c([nH]c4ccccc43)c2=O)cc1Cl	–	inactive: -17.8%
Cc1nc(C)c(-c2ccc(SCC(=O)Nc3ccc(F)c(F)c3)nn2)s1	–	inactive: -23.5%
CC1(C)CCCN(C(=O)c2coc(=O)c(Br)c2)C1	active: 17.8 µM	–
Cc1ccccc1S(=O)(=O)NC(=NCc1ccc(F)cc1)c1ccccc1	–	inactive: -6.16%
COC(=O)c1ccc(CCc2cc(O)c(Br)cc2O)cc1	active: 2.82 µM	–
CCOC(=O)c1oc2nc(C)c3c(c2c1N)CC(C)(C)OC3	active: 15.8 µM	–
COc1cccc(C(=O)/C=C/Nc2cc(C)ccc2O)c1	active: 56.2 µM	–
COc1ccc(OC)c(-c2cc(C3CCN(C(=O)OC(C)(C)C)CC3)[nH]n2)c1	inconclusive: 56.2 µM [inhibitor, partial curve]	–
Cc1ccc(S(=O)(=O)NCC(c2ccc(N(C)C)cc2)N2CCOCC2)cc1 (stereo unspecified)	inconclusive: 63.1 µM [inhibitor, partial curve, poor fit]	–
Cc1ccc(C(=O)Nc2ncn[nH]2)cc1	inconclusive: 2.51 µM [inhibitor, full curve, poor fit]	–
COCCN1C(=O)c2oc3ccccc3c(=O)c2C1c1ccc(OC)c(OC)c1 (stereo unspecified)	active: 56.2 µM	–
CCN1CCN(c2oc(COc3ccc(Cl)cc3)nc2C#N)CC1	inconclusive: 63.1 µM [inhibitor, partial curve]	–
N#Cc1cccc(NC(=O)CSc2ccc3c4c(cccc24)C(=O)c2ccccc2-3)c1	–	inactive: -15.6%
C=CCn1c(=N)c(C(=O)NCCCOC)cc2c(=O)n3cccc(C)c3nc21	inconclusive: 56.2 µM [inhibitor, partial curve]	–
CCN(CC)CCN(C(=O)c1cc2ccccc2cc1OC)c1nc2ccc(OC)cc2s1	inconclusive: 22.4 µM [inhibitor, full curve]	–
O=c1[nH]c(CSc2ccccc2)nc2c1oc1ccccc12	inconclusive: 56.2 µM [inhibitor, partial curve]	–
